Patent US6933321B2, “Antiandrogenic biphenyls” (Endorecherche, Inc., priority 2002, dated 2005)
The name of at least one read-out is uncertain.

Tested on: immature male rats
Assay: Systemic antiandrogenic activity in orchidectomized immature male rats with DHT implant (ventral prostate and seminal vesicle weight)
Type: in vivo, rat
Conditions: 0.5 mg/animal orally once daily for 7 days, relative to % inhibition of flutamide; for SV % efficacy versus flu per os DHT: rat seminal vesicle weight; for Prostate % efficacy versus flu per os DHT: rat ventral prostate weight

Row | Structure (SMILES) | SV % efficacy versus flu per os DHT | Prostate % efficacy versus flu per os DHT
1 | COc1ccc(-c2ccc([N+](=O)[O-])c(C(F)(F)F)c2)cc1 [EM-3393] | 0% | 0%
2 | COc1ccc(-c2c(F)cc(F)cc2F)cc1C(F)(F)F [EM-4833] | 20% | 4%
3 | CC(=O)Nc1cc(-c2ccc(C#N)c(C(F)(F)F)c2)c(C(N)=O)cc1F [EM-5002] | 0% | 0%
4 | CCCN(CCC)C(=O)c1cc(F)ccc1-c1ccc(C#N)c(C(F)(F)F)c1 [EM-4845] | 110% | 163%
5 | CSc1cc(-c2ccc(C#N)cc2)ccc1C#N [EM-4285] | 0% | 7%
6 | N#Cc1ccc(-c2ccc(C#N)c([N+](=O)[O-])c2)cc1 [EM-4344] | 19% | 2%
7 | CC(O)(c1ccc(-c2ccc(C#N)cc2)cc1)C(F)(F)F (stereo not drawn) [EM-3979] | 40% | 52%
8 | N#Cc1ccc(-c2ccc(F)cc2C(=O)Nc2ccc(Cl)cc2)cc1C(F)(F)F [EM-4863] | 19% | 0%
9 | COc1ccc(-c2ccc(C#N)cc2)cc1Br [EM-4036] | 0% | 0%
